No constants are given. Whether binding was seen depends on the method and setting. Some results given as binding are weak or reduced against the parent protein; the word gives no strength. Sequences can lack the tags named with a protein.
T1: BD-Atg9 (S. cerevisiae) (UniProt Q12142)
T1 sequence: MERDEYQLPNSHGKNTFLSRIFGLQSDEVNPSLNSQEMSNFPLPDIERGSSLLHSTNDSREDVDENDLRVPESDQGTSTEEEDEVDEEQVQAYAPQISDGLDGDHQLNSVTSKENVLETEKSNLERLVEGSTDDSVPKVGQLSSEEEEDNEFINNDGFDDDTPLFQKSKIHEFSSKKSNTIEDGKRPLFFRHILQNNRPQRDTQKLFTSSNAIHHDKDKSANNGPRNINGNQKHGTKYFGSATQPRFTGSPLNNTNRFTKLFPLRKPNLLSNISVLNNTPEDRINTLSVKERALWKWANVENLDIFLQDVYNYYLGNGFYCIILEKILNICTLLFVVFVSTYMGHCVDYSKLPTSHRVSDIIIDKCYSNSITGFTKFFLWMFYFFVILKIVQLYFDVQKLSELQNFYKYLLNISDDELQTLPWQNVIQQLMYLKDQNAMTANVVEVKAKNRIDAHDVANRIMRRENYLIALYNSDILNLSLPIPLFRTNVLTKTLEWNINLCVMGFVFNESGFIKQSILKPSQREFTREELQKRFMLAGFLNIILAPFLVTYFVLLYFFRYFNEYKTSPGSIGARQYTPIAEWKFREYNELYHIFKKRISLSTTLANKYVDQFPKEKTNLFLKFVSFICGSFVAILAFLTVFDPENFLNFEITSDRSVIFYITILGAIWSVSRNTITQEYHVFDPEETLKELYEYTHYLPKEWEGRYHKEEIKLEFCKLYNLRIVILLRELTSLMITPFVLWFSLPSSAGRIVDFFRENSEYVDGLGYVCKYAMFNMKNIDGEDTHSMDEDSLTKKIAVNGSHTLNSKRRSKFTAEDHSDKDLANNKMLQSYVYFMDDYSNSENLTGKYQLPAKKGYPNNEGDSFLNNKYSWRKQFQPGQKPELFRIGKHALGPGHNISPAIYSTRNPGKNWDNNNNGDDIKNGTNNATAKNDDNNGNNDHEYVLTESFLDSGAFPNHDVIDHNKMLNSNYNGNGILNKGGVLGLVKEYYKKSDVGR

B1: AD-atg11 EDLLS (protein, UniProt Q12527 1-1178)
chain: MADADEYSTAPTQQEITPLQTTATIINAISGECITTNVDFFVSLDKFKQFIARKWKIPPDQLLILLPYGNKLKPSMFKELLINRSFTLNDFYVYDRRLFSLVSKPTPTNLLTSKDSNPMNSPNSNDLTETLEYLIKNSHISQYQGSDTIMIKPMPSPLEDADVDLSRLNYHSVTSLLTTNLGWLSALEIDVHYFKSLIPDIIAHIKRIFDGLTVCSQYLKLYCFDVESLYNSNVQFLNQLVDNGMTSKWEKCFNDTLSKLTALEGDSLQKFINIESLLENEKSVKILNHSINGKLNKIKREIDENASFRDIITVNIDRLRQMFTPNESKFELEDQMAESFEVLVSEMRTRSRNVLDKEEEEFNSQEFLKSMNVMLEKDKKESVKTLFTISQALYSQIGELIDLKKSLQKHAVAILGNIAFTQMEILGIKRLLLNECNKDLELYKKYEVEFAQVEDLPLIYGLYLIEKYRRLSWFQQILSFISNFNQDLELFKQNELRTRNKWVKNFGSIATVFCAAAAASSDFKRLNEYHSHTSPPNEDEEDENENSIANYRQDLVKVSQAIDNYMTQIKETDVSEPIIDLLSKTLFETKRFHIIYSNFKNNNNNSSNGNSISPEGSIALKSDDVVKGYKTRIKKLESLLHEFQYSDIGHWPQGVLNTHLKPFRGSATSINKKKFLGASVLLEPANISEVNIDSVSQANNHQIQELESNVDDLLHQLQLLKEENNRKSMQISEMGKKISDLEVEKTAYRETLTNLNQELARLTNEEQSHRTEIFTLNASFKKQLNDIISQDNEKIEKLTGDYDDVSKSRERLQMDLDESNKKHEQEVNLLKADIERLGKQIVTSEKSYAETNSSSMEKGEKFETIPLAEDPGRENQISAYTQTLQDRIFDIISTNIFILENIGLLLTFDNNNNIQIRRVKGLKKGTAQSNILDESTQMLDAHDNSLIKSPVFQKLKDEYELIKSVANGSEKDTQQSIFLGNITQLYDNKLYEVAVIRRFKDIETLAKKLTKENKIKRTLLERFQREKVTLRNFQIGDLALFLPTRENVNSVGSMSSSTSSLSSSFSSVDLSTPPPLDAMSIQSSPSVIHSNVINQASISGRDKNKLMRPWAAFTAFEESTRYFLKDEKGLTKGKEWFVGRIVTLEHFVADSPSNNPFRLPKGSVWFQVTAVVVSYQGV
B2: AD-atg11 QQ (protein, UniProt Q12527 1-1178)
chain: MADADEYSTAPTQQEITPLQTTATIINAISGECITTNVDFFVSLDKFKQFIARKWKIPPDQLLILLPYGNKLKPSMFKELLINRSFTLNDFYVYDRRLFSLVSKPTPTNLLTSKDSNPMNSPNSNDLTETLEYLIKNSHISQYQGSDTIMIKPMPSPLEDADVDLSRLNYHSVTSLLTTNLGWLSALEIDVHYFKSLIPDIIAHIKRIFDGLTVCSQYLKLYCFDVESLYNSNVQFLNQLVDNGMTSKWEKCFNDTLSKLTALEGDSLQKFINIESLLENEKSVKILNHSINGKLNKIKREIDENASFRDIITVNIDRLRQMFTPNESKFELEDQMAESFEVLVSEMRTRSRNVLDKEEEEFNSQEFLKSMNVMLEKDKKESVKTLFTISQALYSQIGELIDLKKSLQKHAVAILGNIAFTQMEILGIKRLLLNECNKDLELYKKYEVEFAQVEDLPLIYGLYLIEKYRRLSWFAAILSFISNFNQDLELFKQNELRTRNKWVKNFGSIATVFCEDLLSSSDFKRLNEYHSHTSPPNEDEEDENENSIANYRQDLVKVSQAIDNYMTQIKETDVSEPIIDLLSKTLFETKRFHIIYSNFKNNNNNSSNGNSISPEGSIALKSDDVVKGYKTRIKKLESLLHEFQYSDIGHWPQGVLNTHLKPFRGSATSINKKKFLGASVLLEPANISEVNIDSVSQANNHQIQELESNVDDLLHQLQLLKEENNRKSMQISEMGKKISDLEVEKTAYRETLTNLNQELARLTNEEQSHRTEIFTLNASFKKQLNDIISQDNEKIEKLTGDYDDVSKSRERLQMDLDESNKKHEQEVNLLKADIERLGKQIVTSEKSYAETNSSSMEKGEKFETIPLAEDPGRENQISAYTQTLQDRIFDIISTNIFILENIGLLLTFDNNNNIQIRRVKGLKKGTAQSNILDESTQMLDAHDNSLIKSPVFQKLKDEYELIKSVANGSEKDTQQSIFLGNITQLYDNKLYEVAVIRRFKDIETLAKKLTKENKIKRTLLERFQREKVTLRNFQIGDLALFLPTRENVNSVGSMSSSTSSLSSSFSSVDLSTPPPLDAMSIQSSPSVIHSNVINQASISGRDKNKLMRPWAAFTAFEESTRYFLKDEKGLTKGKEWFVGRIVTLEHFVADSPSNNPFRLPKGSVWFQVTAVVVSYQGV
B3: AD-atg11 QNLNK (protein, UniProt Q12527 1-1178)
chain: MADADEYSTAPTQQEITPLQTTATIINAISGECITTNVDFFVSLDKFKQFIARKWKIPPDQLLILLPYGNKLKPSMFKELLINRSFTLNDFYVYDRRLFSLVSKPTPTNLLTSKDSNPMNSPNSNDLTETLEYLIKNSHISQYQGSDTIMIKPMPSPLEDADVDLSRLNYHSVTSLLTTNLGWLSALEIDVHYFKSLIPDIIAHIKRIFDGLTVCSQYLKLYCFDVESLYNSNVQFLNQLVDNGMTSKWEKCFNDTLSKLTALEGDSLQKFINIESLLENEKSVKILNHSINGKLNKIKREIDENASFRDIITVNIDRLRQMFTPNESKFELEDQMAESFEVLVSEMRTRSRNVLDKEEEEFNSQEFLKSMNVMLEKDKKESVKTLFTISQALYSQIGELIDLKKSLQKHAVAILGNIAFTQMEILGIKRLLLNECNKDLELYKKYEVEFAQVEDLPLIYGLYLIEKYRRLSWFQQILSFISNFNQDLELFKAAEARTRAAWVKNFGSIATVFCEDLLSSSDFKRLNEYHSHTSPPNEDEEDENENSIANYRQDLVKVSQAIDNYMTQIKETDVSEPIIDLLSKTLFETKRFHIIYSNFKNNNNNSSNGNSISPEGSIALKSDDVVKGYKTRIKKLESLLHEFQYSDIGHWPQGVLNTHLKPFRGSATSINKKKFLGASVLLEPANISEVNIDSVSQANNHQIQELESNVDDLLHQLQLLKEENNRKSMQISEMGKKISDLEVEKTAYRETLTNLNQELARLTNEEQSHRTEIFTLNASFKKQLNDIISQDNEKIEKLTGDYDDVSKSRERLQMDLDESNKKHEQEVNLLKADIERLGKQIVTSEKSYAETNSSSMEKGEKFETIPLAEDPGRENQISAYTQTLQDRIFDIISTNIFILENIGLLLTFDNNNNIQIRRVKGLKKGTAQSNILDESTQMLDAHDNSLIKSPVFQKLKDEYELIKSVANGSEKDTQQSIFLGNITQLYDNKLYEVAVIRRFKDIETLAKKLTKENKIKRTLLERFQREKVTLRNFQIGDLALFLPTRENVNSVGSMSSSTSSLSSSFSSVDLSTPPPLDAMSIQSSPSVIHSNVINQASISGRDKNKLMRPWAAFTAFEESTRYFLKDEKGLTKGKEWFVGRIVTLEHFVADSPSNNPFRLPKGSVWFQVTAVVVSYQGV
B4: AD-atg11 TV (protein, UniProt Q12527 1-1178)
chain: MADADEYSTAPTQQEITPLQTTATIINAISGECITTNVDFFVSLDKFKQFIARKWKIPPDQLLILLPYGNKLKPSMFKELLINRSFTLNDFYVYDRRLFSLVSKPTPTNLLTSKDSNPMNSPNSNDLTETLEYLIKNSHISQYQGSDTIMIKPMPSPLEDADVDLSRLNYHSVTSLLTTNLGWLSALEIDVHYFKSLIPDIIAHIKRIFDGLTVCSQYLKLYCFDVESLYNSNVQFLNQLVDNGMTSKWEKCFNDTLSKLTALEGDSLQKFINIESLLENEKSVKILNHSINGKLNKIKREIDENASFRDIITVNIDRLRQMFTPNESKFELEDQMAESFEVLVSEMRTRSRNVLDKEEEEFNSQEFLKSMNVMLEKDKKESVKTLFTISQALYSQIGELIDLKKSLQKHAVAILGNIAFTQMEILGIKRLLLNECNKDLELYKKYEVEFAQVEDLPLIYGLYLIEKYRRLSWFQQILSFISNFNQDLELFKQNELRTRNKWVKNFGSIAAAFCEDLLSSSDFKRLNEYHSHTSPPNEDEEDENENSIANYRQDLVKVSQAIDNYMTQIKETDVSEPIIDLLSKTLFETKRFHIIYSNFKNNNNNSSNGNSISPEGSIALKSDDVVKGYKTRIKKLESLLHEFQYSDIGHWPQGVLNTHLKPFRGSATSINKKKFLGASVLLEPANISEVNIDSVSQANNHQIQELESNVDDLLHQLQLLKEENNRKSMQISEMGKKISDLEVEKTAYRETLTNLNQELARLTNEEQSHRTEIFTLNASFKKQLNDIISQDNEKIEKLTGDYDDVSKSRERLQMDLDESNKKHEQEVNLLKADIERLGKQIVTSEKSYAETNSSSMEKGEKFETIPLAEDPGRENQISAYTQTLQDRIFDIISTNIFILENIGLLLTFDNNNNIQIRRVKGLKKGTAQSNILDESTQMLDAHDNSLIKSPVFQKLKDEYELIKSVANGSEKDTQQSIFLGNITQLYDNKLYEVAVIRRFKDIETLAKKLTKENKIKRTLLERFQREKVTLRNFQIGDLALFLPTRENVNSVGSMSSSTSSLSSSFSSVDLSTPPPLDAMSIQSSPSVIHSNVINQASISGRDKNKLMRPWAAFTAFEESTRYFLKDEKGLTKGKEWFVGRIVTLEHFVADSPSNNPFRLPKGSVWFQVTAVVVSYQGV

Target: T1, BD-Atg9 (S. cerevisiae)
Experiment: two-hybrid; BD-ATG9 and AD-ATG11 or mutants in multiple-knockout yeast YCY149 (lacking 25 ATG genes); growth on SMD -ura -leu -his with 1.5 mM 3-amino-triazol, 4-5 days at 30°C

| Binder | binding |
| --- | --- |
| B1 | binds |
| B2 | binds |
| B3 | binds |
| B4 | binds |
